Data: PubChem BioAssay AID686978 (National Center for Advancing Translational Sciences (NCATS), 2013)
About 64,000 (15%) of roughly 420,000 compounds were called active. Inconclusive means that the source gave no clear call. Such entries were picked first, then a sample of the others. The call rests on the fitted dose curve; in most records, active means well fitted inhibition curve with a large enough effect; inconclusive means small, poorly fitted or top-dose-only effect; inactive means flat fitted curve, though single readings scatter. No potency is given beside an inconclusive call; the fits are too rough.

assay: qHTS for Inhibitors of human tyrosyl-DNA phosphodiesterase 1 (TDP1): qHTS in cells in absence of CPT; conditions: DT40 Tdp1-/- hTDP1 cells, no CPT, ATP luminescence, 48 h; activity change, negative = growth inhibition: at 46.2 µM (top of the series) unless noted; further: nearly all actives have a fitted effect of over 55% in size
How it was run: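 Chicken DT40 Tdp1-/- cells complemented with human TDP1, screened without camptothecin (DMSO vehicle only), 400 cells/well. Compounds pin-transferred, cells incubated at 37 °C for at least 48 hr. Growth read as ATP-dependent luminescence (CellTiter-Glo, 30 min at RT).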
On the % scale 0 is the no-effect control and ±100 the full control effect; potency means the concentration at half of the fitted maximal effect; tags describe the fitted curve by direction and shape.

| Structure (SMILES) | Potency | activity change, negative = growth inhibition |
| --- | --- | --- |
| CN(C)Cc1csc(NC(=O)Nc2cccc(Cl)c2)n1 | active: 18.4 µM | – |
| S=c1[nH]ncn1NCc1ccc(Cl)cc1Cl | – | inactive: -3.56% |
| Cc1cc(N2C(=O)C(O)=C(C(=O)c3ccc(C)o3)C2c2cccs2)no1 (configuration not stated) | inconclusive [inhibitor, single point] | – |
| O=C(c1cccc(S(=O)(=O)N2CCCC2)c1)N1CCCC(C(F)(F)F)C1 (configuration not stated) | – | inactive: -17.1% |
| CCOc1ccc2c(c1)c(=O)c(S(=O)(=O)c1ccc(C)cc1)cn2CC | – | inconclusive: -34.1% [inhibitor] |
| COc1cc(C(=O)NNC(=O)c2cccn2C)cc(OC)c1OC | – | inactive: 15.4% |
| COC(=O)NCc1c(C)nn(-c2ccccc2)c1-n1cccc1 | inconclusive [inhibitor, single point] | – |
| CC(C)CNS(=O)(=O)c1ccc(OCC(=O)Nc2ccc3c(c2)OCCO3)cc1 | inconclusive [inhibitor, single point] | – |
| NS(=O)(=O)c1ccc(N/N=C/c2ccncc2)cc1 | – | inactive: -12.6% |
| CC12CCC(C(=O)N(CSC(=S)N/N=C\c3ccccc3Cl)C1=O)C2(C)C (configuration not stated) | inconclusive [inhibitor, single point] | – |
| COc1ccc(S(=O)(=O)N2CCOCC2)cc1N(C)S(=O)(=O)c1ccc(C)cc1 | inconclusive [inhibitor, partial curve] | – |
| Cc1nnc2n(-c3ccccc3)c(=O)c3c4c(sc3n12)COC(C)(C)C4 | inconclusive [inhibitor, single point] | – |
| Cc1ccc(OCC(=O)Nc2ccc3c4c(cccc24)CC3)c(C)c1 | inconclusive [inhibitor, single point] | – |
| Cc1ccc(C)c(NC(=O)C(=O)NCCc2csc3nc(-c4ccccc4C)nn23)c1 | active: 18.4 µM | – |
| CC1CCC(NC(=O)c2cc3ccccc3cc2O)CC1 (configuration not stated) | inconclusive [inhibitor, single point] | – |
| COc1cc(O)c(C(CCN2CCN(c3ccccc3)CC2)c2ccc(N(C)C)cc2)c(OC)c1 (configuration not stated) | active: 20.6 µM | – |
| CC(C)(C)n1nnnc1C(c1cccnc1)N1CCN(c2ccccc2)CC1 (configuration not stated) | inconclusive [inhibitor, full curve, poor fit] | – |
| O=C(NCc1ccc(F)cc1)c1cc(C2CCCN(S(=O)(=O)c3ccccc3)C2)on1 (configuration not stated) | active: 16.4 µM | – |
| C/C(=N/NC(=O)c1nnn(-c2nonc2N)c1COc1ccccc1)c1ccccc1 | – | inactive: 3.83% |
| CN1CCN(CC(O)Cn2c3ccccc3c3ccccc32)CC1 (configuration not stated) | inconclusive [inhibitor, single point] | – |
| CCn1c(=O)cc(OCC(=O)Nc2ccccc2N2CCN(C)CC2)c2ccccc21 | inconclusive [inhibitor, single point] | – |
| Cc1ccc(-n2ccnc(SCC(=O)NC3CCCCC3)c2=O)cc1F | inconclusive [inhibitor, partial curve] | – |
| CCN1C(=O)N(CN2CCOCC2)C2C1N(CN1CCOCC1)C(=O)N2CC (configuration not stated) | inconclusive [inhibitor, single point] | – |
| CCN(CC)CCCNC(=O)c1cc2c(-c3ccc(Cl)cc3)nn(C)c2s1 | active: 5.8 µM | – |

| Structure (SMILES) | Potency | activity change, negative = growth inhibition |
| --- | --- | --- |
| COC(=O)c1ccc(C2C(Oc3ccccc3)C(=O)N2CCc2ccc(F)cc2)cc1 (configuration not stated) | – | inconclusive: -31% [inhibitor] |
| CNC(=O)c1sc2ncccc2c1-n1cccc1 | inconclusive [inhibitor, full curve, poor fit] | – |
| CCCS(=O)(=O)N1CC(=O)N(c2ccccc2C)C(C)(C(=O)NC2CCCC2)C1 (configuration not stated) | – | inactive: -12.1% |
| Cc1ccc(S(=O)(=O)c2cc3c(=O)n4ccccc4nc3n(Cc3ccco3)c2=N)cc1 | – | inconclusive: -33.1% [inhibitor] |
| CCC(C)Nc1nc2c(c(=O)n(C)c(=O)n2C)n1C (configuration not stated) | – | inactive: -8.71% |
| Cc1cccc2c(C(=O)O)cc(-c3cccnc3)nc12 | inconclusive [inhibitor, single point] | – |
| O=C(CCCn1c(=O)c2sccc2n(Cc2ccc(F)cc2)c1=O)NCc1ccco1 | active: 20.6 µM | – |
| O=C(COc1ccccc1Br)NCCc1nc2ccccc2[nH]1 | – | inactive: -22.3% |
| Cc1ccc(N(CC(=O)NCc2ccccc2)C(=O)CCC(=O)Nc2ccccn2)cc1C | – | inactive: -23.8% |
| CCOc1ccc(C(=O)c2cccs2)cc1 | – | inactive: -1.19% |
| COc1ccc(NC(=O)CC2C(=O)N(c3ccc(C)cc3)C(=O)N2Cc2cccnc2)cc1 (configuration not stated) | inconclusive [inhibitor, single point] | – |
| Cc1csc2ncc(C(=O)NC(C)c3ccccc3)c(=O)n12 (configuration not stated) | inconclusive [inhibitor, partial curve, poor fit] | – |
| CCOC(=O)N1CCC2(CC1)OC(=O)C(C)=C2C(=O)NCc1cccc(OC)c1 | inconclusive [inhibitor, single point] | – |
| Cn1c(Sc2ccc(C(=O)O)cc2[N+](=O)[O-])nnc1-c1ccccc1 | inconclusive [inhibitor, single point] | – |
| COc1ccc(NC(=O)CCCN(C)S(=O)(=O)c2ccc(C)cc2)cc1 | inconclusive [inhibitor, single point] | – |
| CC(=O)Nc1cccc(/C(C)=N/Nc2ccc(S(=O)(=O)Nc3ccccc3C(=O)O)cc2[N+](=O)[O-])c1 | – | inactive: -12.7% |
| Cn1c(=O)n(-c2cccc(Cl)c2)c(=O)c2sc3ccccc3c21 | inconclusive [inhibitor, full curve] | – |
| COc1ccc(-n2c(SCC(=O)Nc3nccs3)nnc2-c2ccccc2)cc1 | inconclusive [inhibitor, single point] | – |
| CCOC(=O)c1c(C)[nH]c(C(=O)OC/C(O)=C(\C#N)c2nc3ccccc3[nH]2)c1C | inconclusive [inhibitor, single point] | – |
| CC1(C)CC(=O)C(C=NCCN2CCNCC2)=C(O)C1 | – | inconclusive: -22.8% [inhibitor] |
| CCn1cc(/C=C(\NC(=O)c2ccccc2F)C(=O)N2CCCC2)c2ccccc21 | inconclusive [inhibitor, single point] | – |
| COc1ccc(C2/C=C\CN(S(=O)(=O)/C=C/c3ccccc3)CC(=O)N2Cc2ccc(F)cc2)cc1 (configuration not stated) | inconclusive [inhibitor, single point] | – |
| CCN1CCN(Cc2c(O)ccc3c(C)c(-c4ccccc4)c(=O)oc23)CC1 | active: 16.4 µM | – |
| Cc1ccc(NC(=O)CC(=O)Nc2ccc(C)cc2)cc1 | – | inactive: 1.48% |

| Structure (SMILES) | Potency | activity change, negative = growth inhibition |
| --- | --- | --- |
| CCCCN1C(=O)CN(C2CCCCC2)C(=O)C1c1ccc(OC(C)C)c(OC)c1 (configuration not stated) | inconclusive [inhibitor, single point] | – |
| Cc1cccc(OCC(=O)Nc2ccc3c(c2)nc(CCN2CCC(C)CC2)n3C)c1 | inconclusive [inhibitor, single point] | – |
| CCn1nc(C)c(C2C(C#N)=C(N)Oc3n[nH]c(C)c32)c1C (configuration not stated) | – | inactive: -23.3% |
| COc1cc(C(=S)NCc2ccccc2)cc(Br)c1O | inconclusive [inhibitor, single point] | – |
| Cc1cccc(-n2ncc(C(=O)NCc3ccccn3)c2C2CCN(C(=O)OC(C)(C)C)CC2)c1 | inconclusive [inhibitor, partial curve] | – |
| Clc1ccc(C2=Nn3c(Cn4nnc5ccccc54)nnc3SC2)cc1 | – | inactive: -25.9% |
| O=C(CSc1nc2c(c(=O)[nH]1)CCCC2)Nc1ccc(Br)cc1 | inconclusive [inhibitor, single point] | – |
| O=C(Nc1cc(Sc2nc3ccccc3s2)cc([N+](=O)[O-])c1)c1ccccc1F | inconclusive [inhibitor, single point] | – |
| COc1ccc(CNc2cc(-c3ccc(OC)cc3)nc3nncn23)cc1 | active: 16.4 µM | – |
| CN(C)/C=C/C(=O)/C=C/c1ccc(Cl)cc1 | inconclusive [inhibitor, single point] | – |
| O=C(NCc1ccccc1)C(c1ccco1)N(C(=O)c1csnn1)C1CC1 (configuration not stated) | – | inactive: 13% |
| CC12CCC(C3NC(=S)NN=C31)C2(C)C (configuration not stated) | – | inactive: -0.884% |
| O=C(COc1ccc(Cl)cc1Cl)N/N=C1\CCCc2ccccc21 | inconclusive [inhibitor, partial curve] | – |
| CCCc1nnc(SCC(=O)N2C(C)CCCC2C)n1CC (configuration not stated) | – | inactive: -0.484% |
| CC(=O)N1c2ccc(S(=O)(=O)N3CCC(C(=O)N4CCN(c5cc(Cl)ccc5C)CC4)CC3)cc2CC1C (configuration not stated) | active: 9.2 µM | – |
| Cc1nn(-c2ccccc2)c(C)c1NC(=O)COC(=O)Cc1ccccc1F | – | inactive: 0.853% |
| COc1ccc(C2Nc3ccccc3C(=O)N2c2ccccc2)cc1COc1ccc(NC(C)=O)cc1 (configuration not stated) | inconclusive [inhibitor, single point] | – |
| CCC(=O)NC(=S)NNC(=O)c1ccc(OC)cc1 | active: 22.4 µM | – |
| CCOc1ccc(S(=O)(=O)N(C)c2ccc(OCC(=O)NCc3ccc(C(=O)OC)cc3)cc2)cc1 | – | inactive: -54.3% |
| COc1ccc(NC(=O)CN(C)C(=O)c2cccc(S(=O)(=O)N3CCN(c4ccc(F)cc4)CC3)c2)cc1 | inconclusive [inhibitor, single point] | – |
| CCOc1ccc2nc(NC(=O)c3cnccn3)sc2c1 | active: 23.1 µM | – |
| CCOC(=O)C1CCCCN1Cc1cccc(OCc2ccccc2)c1 (configuration not stated) | inconclusive [inhibitor, single point] | – |
| O=C(Cc1cccs1)NCc1ccncc1 | inconclusive [inhibitor, single point] | – |
| O=C(NCc1cccc(C(F)(F)F)c1)N1CCN(S(=O)(=O)c2ccccc2F)CC1 | inconclusive [inhibitor, single point] | – |
